Measurements from PubChem BioAssay AID488969 (Vanderbilt High Throughput Screening Facility, 2010).
In all, about 110,000 compounds were measured (“z-score”: median about -0.1, highest 2% from about 2 on). Some of the results follow. Calls of active or inactive are those of the source.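 The calls were made as follows: active = z-score in the third read window above 3 or below -3; inactive = the rest.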

target: Metabotropic glutamate receptor 8 (Rattus norvegicus) (UniProt P70579); assay: mGluR8 Gi/Go-coupled signaling modulation – cell-based, rat, thallium flux, HTS, primary screen (AID 488969); conditions: HEK293 rat mGluR8, GIRK (G protein-gated inwardly rectifying potassium channel) thallium flux, FluoZin2; at 10 µM; stronger effect = higher value; submaximal glutamate (EC20) added with thallium
Chain of UniProt P70579 (P70579 whole entry, looked up): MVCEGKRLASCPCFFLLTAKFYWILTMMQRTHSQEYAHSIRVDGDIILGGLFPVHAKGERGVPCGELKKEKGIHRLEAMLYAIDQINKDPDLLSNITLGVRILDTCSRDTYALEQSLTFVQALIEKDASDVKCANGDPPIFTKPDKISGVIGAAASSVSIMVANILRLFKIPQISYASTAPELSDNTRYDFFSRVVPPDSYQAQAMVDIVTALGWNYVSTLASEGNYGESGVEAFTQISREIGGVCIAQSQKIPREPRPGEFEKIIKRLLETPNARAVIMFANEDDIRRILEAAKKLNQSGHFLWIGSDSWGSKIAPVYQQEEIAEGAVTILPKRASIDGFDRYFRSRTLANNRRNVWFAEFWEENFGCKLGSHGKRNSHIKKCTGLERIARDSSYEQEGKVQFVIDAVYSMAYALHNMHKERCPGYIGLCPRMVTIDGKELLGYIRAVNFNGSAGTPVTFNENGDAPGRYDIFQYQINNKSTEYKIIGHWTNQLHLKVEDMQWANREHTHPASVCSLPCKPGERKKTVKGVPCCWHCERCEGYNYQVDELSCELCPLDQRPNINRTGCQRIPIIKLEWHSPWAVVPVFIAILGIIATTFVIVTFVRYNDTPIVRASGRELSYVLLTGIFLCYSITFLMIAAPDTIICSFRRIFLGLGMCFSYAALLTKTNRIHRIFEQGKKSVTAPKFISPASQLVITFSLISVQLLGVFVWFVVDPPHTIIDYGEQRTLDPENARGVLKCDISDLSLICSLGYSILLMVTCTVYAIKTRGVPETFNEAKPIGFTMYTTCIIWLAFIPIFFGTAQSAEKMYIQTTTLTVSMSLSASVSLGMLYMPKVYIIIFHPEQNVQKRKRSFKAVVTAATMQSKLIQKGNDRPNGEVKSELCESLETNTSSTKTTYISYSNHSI

Compound	z-score
CCN(CCO)C(=O)C(c1ccccc1)c1ccccc1	-0.118
CC(NC(=O)Cc1cccs1)C(c1cccs1)N1CCN(c2ccccc2)CC1 (stereo unspecified)	-0.107
CCSC1=C(C#N)C(c2cccc(OC)c2)CC(=O)N1 (stereo unspecified)	0.0816
Cc1ccc(NC(=O)c2ccc(OC(=O)CCN3C(=O)c4ccccc4C3=O)cc2)cc1	0.0217
CCOc1ccc(C(=O)NNC2CC(=O)N(CCc3ccccc3)C2=O)cc1OC (stereo unspecified)	-0.0282
CCCCOc1ccc(S(=O)(=O)NNC(=O)c2cc3ccccc3o2)cc1	-0.113
Cc1ccc(C(=O)Nc2nc(COc3ccccc3)cs2)s1	0.226
CCCn1c(=O)c(C(=O)NCc2ccccn2)c(O)c2ccccc21	-0.781
O=C(NCc1ccncc1)C(=O)NCC(c1ccco1)N1CCN(c2ccccc2F)CC1 (stereo unspecified)	-0.192
CNc1nc(OCCNC(=O)Nc2ccccc2)nc(N2CCOCC2)n1	-1.08
COc1ccc(CC(=O)Nc2ccc(-c3noc(-c4ccccc4OC)n3)cc2)cc1	0.0856
Cc1cccc(N2CCN(C3=NC(=O)/C(=C\c4cn[nH]c4-c4ccccc4)S3)CC2)c1	0.239
O=C1NCC(c2ccccc2)C1C(=O)N/N=C\c1ccc(-c2ccc(Cl)c(Cl)c2)o1 (stereo unspecified)	0.0259
Cc1cc(C)n(S(=O)(=O)c2ccc(C(C)(C)C)cc2)n1	-1.41
CCOC(=O)C(=CNc1cc(C)nn1C(C)(C)C)C(=O)OCC	-0.0177
COC(=O)/C(=N/Nc1ccccc1Cl)Sc1nnc(C(O)c2ccccc2)n1-c1ccccc1 (stereo unspecified)	-0.58
COc1ccc(NC(=O)C2CCN(C(=O)c3cccs3)CC2)cc1	0.195
CC1CC(C)CN(c2cc(=O)n(Cc3ccc(F)cc3)c(=O)[nH]2)C1 (stereo unspecified)	-0.074
COc1cc(NC(=O)C2CC(=O)NC3=C2C(=O)CCC3)c(OC)cc1Cl (stereo unspecified)	-0.0285
COc1ccc(C(=O)N(CN2CCCC2=O)c2nccs2)cc1OC	0.187
NC(=S)N/N=C\c1c2ccccc2cc2ccccc12	0.0922
C/C(=N/NC(=O)c1ccc(O)cc1)c1cccc([N+](=O)[O-])c1	-0.369

Compound	z-score
COC(=O)C1C(=O)OC(C)(C)C1C(C)C(=O)c1ccccc1 (stereo unspecified)	-0.375
Cc1ccc(NC(=O)c2csc(-c3ccccc3)c2C)cc1	-0.222
CC(=O)c1oc2ccccc2c1NC(=O)CN1CCCCC1	-0.887
O=C(N/N=C/c1cccnc1)C(O)(c1ccccc1)c1ccccc1	-0.223
CCOC(=O)c1[nH]c2ccc(OC)cc2c1NC(=S)N1CCN(c2ccccc2OC)CC1	-0.555
CC(C)OC(=O)CC12CN3CN(C1)CC(CC(=O)OC(C)C)(C3)C2=O	active: 3.43
CCOC(=O)N1CCN(CCC(=O)Nc2ccccc2OC)CC1	-0.0533
Cc1ccc(Cc2cncc(O)c2)cc1S(=O)(=O)O	0.05
Cn1c(CCN2CCN(c3ccc(F)cc3)CC2)nc2cc(NC(=O)c3ccco3)ccc21	-2.09
C1CCCCCC2(CCCCC1)OCC(CN1CCOCC1)O2 (stereo unspecified)	0.0135
O=C(Oc1ccccc1[N+](=O)[O-])c1cccnc1	-0.126
Cc1cccc(C(=O)Oc2ccc(/C=N/O)cc2)c1	0.0873
COCc1cc(C)nc2sc(C(=O)OC)c(N)c12	-0.0512
COCCNC(=O)c1ccc(Cn2c(=S)[nH]c3cc4c(cc3c2=O)OCO4)cc1	-0.3
Cc1ccc(Nc2nc(Oc3ccc(=O)[nH]n3)nc(N(C)C)n2)cc1	-0.00557
Cc1ccc(S(=O)(=O)Nc2ccncc2)c(C)c1N(C)S(=O)(=O)c1ccc(F)cc1	-0.149
C/C(=C\C(=O)c1cccnc1)Nc1ccc(C(=O)O)cc1	-0.131
CC(C)Sc1nc2sc(-c3ccccc3)cc2c(=O)n1N	-0.258
O=[N+]([O-])c1ccc(N2CCN(CCO)CC2)cc1Sc1nc2ccccc2[nH]1	-0.579
CCCCn1c(CNC(=O)C23CC4CC(CC(C4)C2)C3)nnc1SCC(=O)Nc1nnc(C)s1	-0.306
COc1cccc(C2NC(=O)c3ccccc3O2)c1OC (stereo unspecified)	0.323
O=C(CCn1c(=O)sc2ccccc21)NCc1ccc2c(c1)OCO2	-0.209

Compound	z-score
COCCNC(=S)NC12CC3CC(CC(C3)C1)C2	-0.119
COc1cc(-n2nnnc2SCC(=O)N2CCN(c3ccc(F)cc3)CC2)c(OC)cc1Cl	0.181
COc1ccc(C(=O)/C=C\N2CCOCC2)cc1	-0.512
Cc1ccc(OCCN2C(=O)c3ccccc3C2=O)c(C)c1	-0.139
Cc1ccc(-c2nnc3c4ccccc4c(C)nn23)cc1NC(=O)c1ccco1	-0.787
FC(F)(F)c1ccccc1C1C2=C(Nc3ncnn31)c1ccccc1CCC2 (stereo unspecified)	-0.375
Cc1nnc(SCC(=O)NCc2ccco2)n1-c1ccc(F)cc1	-0.206
CCOC(=O)c1cc(-c2ccccc2)sc1NC(=O)C(C)N1C(=O)NC(C)(c2ccc(Cl)cc2)C1=O (stereo unspecified)	-0.391
O=C1NC(Nc2ccccn2)(C(F)(F)F)C(=O)N1c1ccc(F)cc1 (stereo unspecified)	-0.0125
COc1ccc(-c2cc(C(=O)Oc3ccc([N+](=O)[O-])cc3)c3ccccc3n2)cc1	-0.189
Cc1cccc(C)c1NC(=O)CCCN1CC(C)OC(C)C1 (stereo unspecified)	-0.0952
OCCCNc1nc(-c2ccc(Cl)cc2)nnc1-c1ccccc1	-0.927
O=C(Nc1ncc2c(n1)-c1ccccc1CC2)c1ccc(Cl)cc1	-0.19
COc1ccc(NC(=O)C2CCCN(S(=O)(=O)c3ccc4c(c3)oc(=O)n4C)C2)c(OC)c1 (stereo unspecified)	-0.0132
COc1cc(/C=C/C2=NC(=O)C(C)(C)O2)ccc1O	0.388
COc1ccc(CCNC(=O)c2cccnc2)cc1OC	-0.38
CC(C)(C)n1nnnc1CN1CCN(C(c2ccccc2)c2ccccc2)CC1	-0.289
COc1ccc(CCN2C(=O)c3[nH]nc(-c4ccccc4O)c3C2c2cccc(Cl)c2)cc1 (stereo unspecified)	0.144
CCCOc1ccc(-c2nn(-c3ccccc3)cc2/C=C2\SC(N)=NC2=O)cc1C	-0.00817
O=C(OCC(O)CN1CCCCC1)C12CC3CC(CC(C3)C1)C2 (stereo unspecified)	0.578
Cc1cc(C(F)(F)F)nc(SCC(=O)Nc2cc(C)on2)n1	0.254
O=C1c2ccccc2C(=O)N1CCC(=O)N1CCc2ccccc21	-0.497

Compound	z-score
CSCC[C@H](NC(=O)COc1ccc(Cl)cc1Cl)c1nc2ccccc2[nH]1	0.437
CC(C)Oc1ccc(CSC(=N)N)cc1	0.155
CSCCC(NC(=O)c1ccccc1)C(=O)NC1CCCC1 (stereo unspecified)	0.435
NC(=O)C1CCN(C2CC(=O)N(Cc3ccc(N4CCCC4=O)cc3)C2=O)CC1 (stereo unspecified)	0.514
COc1ccc(C(=O)CSc2nnc(-c3cc(C)on3)o2)cc1	-0.321
CCOC(=O)N1CCC(N(CCOC)C(=O)Nc2ccc(C)c(C)c2)CC1	-0.232
COc1ccccc1-n1c(=O)[nH]c2c(C(N)=O)nc(C3CCCCC3)nc21	-0.356
O=C(Nc1ccc(N2CCN(Cc3ccccc3)CC2)cc1)c1ncn[nH]1	-0.484
O=c1[nH]n(-c2cccc3cccnc23)c(=O)c2ccccc12	-0.927
O=C(Cn1nnc2ccccc2c1=O)Nc1ccc2c(c1)CCC2	-0.0562
Cc1ccc(NC(=O)c2ccccc2Cl)c(Cl)c1	-0.239
COC(=O)c1sccc1NC(=O)c1sccc1C	-0.117
COc1ccc(-c2noc(-c3ccccc3C(=O)Nc3cccc(OC)c3)n2)cc1	-0.272
Cc1ccc(-c2nn(-c3ccccc3)cc2/C=C(\C#N)c2cccc(C#N)c2)o1	0.0362
O=C(Oc1ccc(OC(=O)N2CCOCC2)cc1)c1ccccc1	-0.672
O=C(OCC(=O)N1CCc2ccccc21)c1ccccc1	0.694
CC(C)CC1=NC(C(F)(F)F)(C(F)(F)F)c2c(n(CC(C)C)c(=O)[nH]c2=O)N1	0.971
CC(C)(C)C(=O)Nc1ccc(Oc2ccc3c(c2)C(=O)N(c2ccc(O)cc2)C3=O)cc1	-0.214
O=C1CCCN1CC(O)CS(=O)(=O)c1ccccc1 (stereo unspecified)	0.0491
O=C(COc1ccc(Cl)cc1)Nc1ccc2oc(-c3ccncc3)nc2c1	0.0431
Cc1c(NC(=O)c2cc3ccccc3oc2=O)c(=O)n(-c2ccccc2)n1C	-0.0487
Cc1ccc(-c2csc(=Nc3cccnc3)n2CCCn2ccnc2)cc1C	0.094

Compound	z-score
CCOC(=O)CSc1nc2cc(C(=O)NCC3CCCO3)ccc2c(=O)n1Cc1ccco1 (stereo unspecified)	-0.125
Cc1ccc(O)c(C2=NNC(O)(C(F)(F)F)C2)c1 (stereo unspecified)	-0.332
COc1ccc(-n2nc3cc(C)c(NC(=S)NC(=O)c4ccccc4C)cc3n2)cc1	0.601
Cc1cccc(N(C(=O)c2ccc(CN3CCOCC3)o2)C(C(=O)NC2CCCCC2)c2ccc(F)cc2)c1 (stereo unspecified)	-0.0528
CCC(C(=O)NCc1ccco1)N(C(=O)CNS(=O)(=O)c1ccccc1)C1CCCCC1 (stereo unspecified)	-0.0212
CCN(CC(=O)Nc1ccc(NC(C)=O)cc1)C(=O)/C=C/c1cccs1	0.279
COc1ccc(CC(=O)NCc2nnc(SCC(=O)N3CCN(c4ccccc4)CC3)n2C)cc1	-0.627
CCc1ccc(Nc2cc(=O)n(C3CCCCC3)c(=O)[nH]2)cc1	-0.0576
CCOc1cccc(N(C(=O)Cc2cccs2)C(C(=O)NC2CCCCC2)c2cccn2C)c1 (stereo unspecified)	-0.0721
CCOc1cc(/C=N/NC(=O)COc2nc(C)cc(COC)c2C#N)ccc1O	0.692
CC(C)(C)NC(=O)NC(=O)COC(=O)c1cccc(NS(=O)(=O)c2ccc(F)c(F)c2)c1	-0.352
O=C(N/N=C\c1ccc([N+](=O)[O-])s1)c1cncc(Br)c1	-0.156
COc1ccc(OC)c(S(=O)(=O)NCC2CCCO2)c1 (stereo unspecified)	0.058
O=C(CNC(=O)c1ccco1)NCCCc1ccccc1	-0.149
Cc1nc(N2CCN(C)CC2)c2c(C)c(C(=O)Nc3ccc(F)cc3)sc2n1	-0.367
Cn1c(=O)c2c(nc(N/N=C/c3ccc(OC(=O)c4ccco4)cc3)n2Cc2ccccc2)n(C)c1=O	0.162
CCOC(=O)CN1C(=O)S/C(=C/c2ccc(OC)c([N+](=O)[O-])c2)C1=O	0.0987
CN1C(=S)NC(C)(C)CC1(C)c1ccc(O)cc1O (stereo unspecified)	-0.144
